For 171 sequences, binding signal results are on record in PMC5836133.

The list shows a part of the results. At the low end of the ranking the order means little.

In the assay the test system is T1, GST-NbGlk1(82-244).
T1 sequence: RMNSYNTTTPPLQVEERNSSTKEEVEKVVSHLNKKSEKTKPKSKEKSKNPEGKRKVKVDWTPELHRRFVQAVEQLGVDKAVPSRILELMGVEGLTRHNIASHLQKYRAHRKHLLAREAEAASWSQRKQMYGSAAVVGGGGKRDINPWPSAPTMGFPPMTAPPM
Nature of the assay: protein-binding microarray.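 Also: rank-based score ranging −0.5 to +0.5 with E above 0.45 taken as significant binding.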 Particulars: NbGlk1 is a Golden2-like transcription factor of Nicotiana benthamiana; high values mean tight binding; most listed sequences are background and not binding sites; double strand, one strand shown.
Take CACCGGGC: the binding signal is -0.275 E-score.

AGAAAGAG registered a binding signal of -0.129 E-score.

In the case of ATCCTATA, the binding signal was 0.326 E-score.

Turning to AGAGCTCC, the binding signal is -0.331 E-score.

CAATCAGC: the binding signal was found to be 0.22 E-score.

AACCCCAC displayed a binding signal of -0.155 E-score.

ACCATGAA: the binding signal came out at 0.0718 E-score.

For the sequence AAGCATTG, the binding signal was -0.205 E-score.

Regarding AAGGTCCA, the binding signal was -0.296 E-score.

ACTTGTAC registered a binding signal of -0.0738 E-score.

Turning to CAACAATA, the binding signal amounted to 0.11 E-score.

In turn, ATGGAGTG gave a binding signal of -0.0854 E-score.

In turn, AGTACGTC gave a binding signal of -0.165 E-score.

Regarding ATGACCGA, the binding signal is -0.13 E-score.

AAGTATGG yielded a binding signal of -0.0398 E-score.

As to AACGGCGG, the binding signal is -0.173 E-score.

The sequence CAGACGAG showed a binding signal of -0.136 E-score.

AATCTTTC returned a binding signal of 0.387 E-score.

Take AGTACTCA: the binding signal is -0.125 E-score.

The sequence ATGCGCGG had a binding signal of -0.0606 E-score.

For ACCTCGCA, the binding signal was -0.0939 E-score.

The sequence CAATGAGG registered a binding signal of -0.0731 E-score.

ATCTCTCG registered a binding signal of 0.231 E-score.

CACTCATC: the binding signal is -0.0744 E-score.

In the case of AGGGAATA, the binding signal turned out to be 0.196 E-score.

ATGTGGGG gave a binding signal of -0.184 E-score.

AATGGCAA had a binding signal of -0.0366 E-score.

The sequence ACCTTTTA showed a binding signal of 0.0069 E-score.

AAAGGCCC registered a binding signal of -0.411 E-score.

With AGAACGTC, the binding signal is -0.0857 E-score.

CAACCAAA came in with a binding signal of 0.0618 E-score.

Sequence AACCGTCT showed a binding signal of -0.0831 E-score.

In turn, AGTCGGCG returned a binding signal of -0.194 E-score.

Sequence ACGTACCG had a binding signal of -0.243 E-score.

Sequence AGAGTGAT registered a binding signal of 0.0279 E-score.

AGACACCC returned a binding signal of -0.259 E-score.

Turning to ATGGCTGG, the binding signal is -0.261 E-score.

AGTGGGAG gave a binding signal of -0.0151 E-score.

As for AGTCCTGA, the binding signal was 0.0152 E-score.

ACCAACAC displayed a binding signal of -0.0999 E-score.

Sequence CAATTGGC showed a binding signal of -0.118 E-score.

As for ACTGCGAG, the binding signal was -0.188 E-score.

AGGTGTAG: the binding signal was -0.226 E-score.

ATTACGTG returned a binding signal of 0.343 E-score.

The sequence ATACATTA returned a binding signal of 0.143 E-score.

ACTTCAGC registered a binding signal of -0.0718 E-score.

For the sequence CAGCCCCG, the binding signal was -0.14 E-score.

In turn, AGTGGGGG had a binding signal of -0.205 E-score.

CAACTCTA returned a binding signal of 0.00695 E-score.

AACTTGGC had a binding signal of -0.0286 E-score.

Regarding AGAATACC, the binding signal is -0.0837 E-score.

The sequence AGTATCAG gave a binding signal of 0.272 E-score.

Consider AATACCTA, for which the binding signal was determined as 0.0521 E-score.

In turn, AGCTTTCC had a binding signal of -0.0521 E-score.

With AAGATCCT, the binding signal worked out at 0.339 E-score.

Sequence AGCCCAAC showed a binding signal of -0.156 E-score.

In turn, AAGCCAAG gave a binding signal of -0.2 E-score.

In turn, ATGCGACA yielded a binding signal of -0.0572 E-score.

In the case of AATTGTGC, the binding signal stood at 0.0307 E-score.

With ATTAATAG, the binding signal stood at 0.0377 E-score.

In turn, AACCAGAT returned a binding signal of 0.301 E-score.

For the sequence ATGTTTCG, the binding signal was -0.00207 E-score.

Take CACAACTA: the binding signal was -0.0583 E-score.

Regarding ATTCGTGG, the binding signal worked out at 0.155 E-score.

ACGAAAGA showed a binding signal of 0.15 E-score.

In turn, AGAATCTC came in with a binding signal of 0.469 E-score.

Regarding CAACTCCG, the binding signal was -0.0631 E-score.

ACGGTGTA registered a binding signal of -0.0358 E-score.

As for ACCAGCGA, the binding signal is 0.0697 E-score.

Regarding ACATCGAC, the binding signal is -0.145 E-score.

Turning to AGTAGCGC, the binding signal was -0.246 E-score.

As for AATGCAAG, the binding signal worked out at 0.0142 E-score.

As to ATTGTTCA, the binding signal came to 0.0569 E-score.

ACTCTACT: the binding signal is -0.0332 E-score.

ATAGCGGA gave a binding signal of 0.0945 E-score.

Regarding AGAGAAAC, the binding signal is -0.0997 E-score.

As to ATGTCAGG, the binding signal is -0.16 E-score.

The sequence ACCTTTAG gave a binding signal of -0.134 E-score.

In turn, AGACATCT registered a binding signal of 0.0442 E-score.

AGTCGCGC showed a binding signal of -0.0545 E-score.

Sequence AACCGATG returned a binding signal of -0.176 E-score.

On to CACCAAGC, for which the binding signal was -0.215 E-score.

As to AGACCGAC, the binding signal is -0.209 E-score.

The sequence ATTTGTTG returned a binding signal of 0.185 E-score.

CAAACCCG had a binding signal of -0.126 E-score.

In the case of AAACGGCG, the binding signal was -0.144 E-score.

In the case of AAACGATT, the binding signal was found to be 0.154 E-score.

On to ATATCCGC, for which the binding signal amounted to 0.411 E-score.

In turn, AAACAGTT had a binding signal of -0.0481 E-score.

In the case of AAATGCGA, the binding signal was 0.127 E-score.

As to AATTAAAT, the binding signal was found to be 0.15 E-score.

The sequence AGGCGCCG displayed a binding signal of -0.172 E-score.

ACGACCAT registered a binding signal of -0.128 E-score.

In turn, AGTCGTTA came in with a binding signal of 0.0945 E-score.

For the sequence ATGAGAAT, the binding signal was 0.351 E-score.

Sequence ACGGGGTA gave a binding signal of -0.115 E-score.

Sequence ACAATATA registered a binding signal of 0.206 E-score.

As to AACAAGAT, the binding signal came to 0.228 E-score.

ACTATACA yielded a binding signal of 0.074 E-score.

As to AAACTATA, the binding signal was determined as 0.104 E-score.

For the sequence CACAGCCA, the binding signal stood at 0.00778 E-score.

ACACGCAA showed a binding signal of 0.11 E-score.

AGAGGGGC: the binding signal is -0.176 E-score.

ACTAATAG gave a binding signal of -0.0821 E-score.

Sequence AAGGCAAA returned a binding signal of 0.0278 E-score.

As to AACCACAT, the binding signal is -0.109 E-score.

With AAATAGAT, the binding signal is 0.264 E-score.

The sequence AGATCGAA displayed a binding signal of 0.146 E-score.

ACGAGCGG displayed a binding signal of -0.299 E-score.

Consider AAAGACTG, for which the binding signal is 0.0291 E-score.

As to AAGTTACA, the binding signal is -0.0727 E-score.

In turn, ACAGGGGG showed a binding signal of -0.248 E-score.

As to ACACACGA, the binding signal was -0.0169 E-score.

In the case of ATGCGCCC, the binding signal is -0.222 E-score.

In turn, ATTGGTGG returned a binding signal of 0.00656 E-score.

Turning to AGTGGTAA, the binding signal is -0.0592 E-score.

ATCAGAGA gave a binding signal of 0.238 E-score.

The sequence ACTCCGGC gave a binding signal of -0.178 E-score.

On to AAAATACT, for which the binding signal stood at 0.174 E-score.

In turn, AAGAATTA returned a binding signal of 0.13 E-score.

CAATTTAG: the binding signal came out at 0.167 E-score.

In turn, ATCCAATA gave a binding signal of 0.324 E-score.

As to AACACCGT, the binding signal was -0.122 E-score.

As for AAATAACC, the binding signal was determined as 0.163 E-score.

As for AACCTTGA, the binding signal was -0.0413 E-score.

As for AGAAAAAG, the binding signal was -0.0842 E-score.

CAATTGTC came in with a binding signal of -0.0786 E-score.

AAGCCTAG returned a binding signal of -0.241 E-score.

Turning to AATCAATG, the binding signal came out at 0.154 E-score.

On to AGCCAATA, for which the binding signal is -0.0547 E-score.

AAGTACTG yielded a binding signal of -0.0772 E-score.

With ACATTGAC, the binding signal is -0.0538 E-score.

In the case of AGTGGCAT, the binding signal is -0.11 E-score.

With CACGGCAC, the binding signal is -0.0757 E-score.

ATAAGTTC yielded a binding signal of 0.0665 E-score.

For ACCTGTGC, the binding signal is -0.181 E-score.

For the sequence AGTGTTGG, the binding signal was -0.0944 E-score.

The sequence AAATCCAA showed a binding signal of 0.426 E-score.

For the sequence ATACTCAG, the binding signal was 0.177 E-score.

Sequence ACCCTCTA showed a binding signal of -0.123 E-score.

As for CAGATGAC, the binding signal is -0.117 E-score.

For the sequence AACAGGAC, the binding signal is -0.0652 E-score.

ATGTAAAT registered a binding signal of 0.196 E-score.

Turning to ACGCCATA, the binding signal was -0.035 E-score.

As to AGCGGTCC, the binding signal was -0.303 E-score.

The sequence ATAAACTG displayed a binding signal of -0.0273 E-score.

AGCGCTTC gave a binding signal of -0.112 E-score.

The sequence AATCTAAA registered a binding signal of 0.403 E-score.

ATAATCCC returned a binding signal of 0.212 E-score.

ACGCCGTC yielded a binding signal of -0.249 E-score.

ACAGTGAC displayed a binding signal of -0.124 E-score.

On to AAGCGTGT, for which the binding signal is -0.174 E-score.

In turn, AATGGGAG showed a binding signal of -0.0719 E-score.

As for AATATCAC, the binding signal worked out at 0.34 E-score.

For CAACGAAA, the binding signal stood at 0.0656 E-score.

The sequence ATTACAAT registered a binding signal of 0.347 E-score.

On to AGAAACCT, for which the binding signal is -0.0687 E-score.

For the sequence ACATCTTA, the binding signal was 0.0642 E-score.

The sequence ATCCACAA returned a binding signal of 0.29 E-score.

On to ACTTCACT, for which the binding signal is -0.156 E-score.

In turn, ACTCCATG had a binding signal of -0.198 E-score.

ACAGTAGC: the binding signal was -0.0641 E-score.

ATTGCATC showed a binding signal of 0.196 E-score.

Sequence CAAACCTC yielded a binding signal of -0.092 E-score.

The sequence ATCGACAA displayed a binding signal of 0.0391 E-score.

ATTTGGTC came in with a binding signal of 0.18 E-score.

ATTATGGC displayed a binding signal of 0.0912 E-score.

In turn, AGTCTGAC gave a binding signal of -0.139 E-score.

With AGAACGAA, the binding signal stood at 0.0167 E-score.

Turning to AGACCAGA, the binding signal is -0.151 E-score.

Sequence ATGAACTG showed a binding signal of -0.015 E-score.
